# The list shows a part of the results. No stated cut-off is given here; in the data, active = 3.2 or more and inactive = the rest. Most of these values are background signal.
# Molecular target: SHP2 C-SH2 domain E139D
# Test: enrichment score (SH2-bound / input frequency) (ratio); bacterial display of known human phosphotyrosine sites (pTyr-Var adds point mutants) read by sequencing; higher = stronger binding; tyrosines were phosphorylated by kinases first
# Conditions: peptide library: Human pTyr
# 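Further: displayed peptides selected on beads carrying the immobilized SH2 domain, with library peptides lacking any tyrosine serving as negative controls.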
row,Binder,enrichment score
1,EAPGEQLYQQSRAAV [CS025_HUMAN_63_YA],inactive: 0.567
2,ITSSSAIYDNPNLIK [DCP1B_HUMAN_191],inactive: 0.577
3,FGMSRNLYAGDAARV [DDR1_HUMAN_792_YA],inactive: 0.55
4,KALKQQDYLSLPPWE [CSF2RB_HUMAN_882],inactive: 0.756
5,NDQDAMEYSSEEEEV [DDX46_HUMAN_294],inactive: 1.1
6,DDQRSMGYDDLDAGM [CTND1_HUMAN_291_YA],inactive: 0.904
7,GQAPGYSYTAANKNK [CYC_HUMAN_49],inactive: 1.11
8,GSPGHTIYAKVDNEI [ABLM1_HUMAN_373],inactive: 3.16
9,APGGSDNYGSLSRVT [CTND1_HUMAN_228_YA],inactive: 0.76
10,SKGLPSPYNMSSAPG [DESP_HUMAN_2817],inactive: 0.527
11,AVVNLINYQDDAELA [CTNB1_HUMAN_142],inactive: 0.705
12,TKSLDNNYSTPNERG [CTND1_HUMAN_904],inactive: 1.11
13,ALRFCGIYGYRLRRK [CSF2RB_HUMAN_466],inactive: 0.599
14,NAHVRNTYSQTALDI [CSKI1_HUMAN_253],inactive: 0.696
15,DDQRSMGYDDLDYGM [CTND1_HUMAN_291],inactive: 0.936
16,ESYEGNSYTFIDPTQ [CSF1R_HUMAN_561],inactive: 0.64
17,EDVEDPVYQAIVFEA [DAB1_HUMAN_198_YA],inactive: 1.3
18,EDEDDEDYVPYVPLR [DDX41_HUMAN_33],inactive: 0.956

# Molecular target: SHP2 C-SH2 domain wild-type
# Test: as above
# Conditions: peptide library: Human pTyr
row,Binder,enrichment score
1,EAPGEQLYQQSRAAV [CS025_HUMAN_63_YA],inactive: 0.537
2,ITSSSAIYDNPNLIK [DCP1B_HUMAN_191],inactive: 0.634
3,FGMSRNLYAGDAARV [DDR1_HUMAN_792_YA],inactive: 0.466
4,KALKQQDYLSLPPWE [CSF2RB_HUMAN_882],inactive: 0.663
5,NDQDAMEYSSEEEEV [DDX46_HUMAN_294],inactive: 1.2
6,DDQRSMGYDDLDAGM [CTND1_HUMAN_291_YA],inactive: 0.681
7,GQAPGYSYTAANKNK [CYC_HUMAN_49],inactive: 0.946
8,GSPGHTIYAKVDNEI [ABLM1_HUMAN_373],active: 8.5
9,APGGSDNYGSLSRVT [CTND1_HUMAN_228_YA],inactive: 0.604
10,SKGLPSPYNMSSAPG [DESP_HUMAN_2817],inactive: 0.517
11,AVVNLINYQDDAELA [CTNB1_HUMAN_142],inactive: 0.676
12,TKSLDNNYSTPNERG [CTND1_HUMAN_904],inactive: 0.833
13,ALRFCGIYGYRLRRK [CSF2RB_HUMAN_466],inactive: 0.558
14,NAHVRNTYSQTALDI [CSKI1_HUMAN_253],inactive: 0.578
15,DDQRSMGYDDLDYGM [CTND1_HUMAN_291],inactive: 0.618
16,ESYEGNSYTFIDPTQ [CSF1R_HUMAN_561],inactive: 0.632
17,EDVEDPVYQAIVFEA [DAB1_HUMAN_198_YA],inactive: 1.21
18,EDEDDEDYVPYVPLR [DDX41_HUMAN_33],inactive: 1.02

# Molecular target: SHP2 N-SH2 domain L43F
# Test: as above
# Conditions: peptide library: Human pTyr
row,Binder,enrichment score
1,EAPGEQLYQQSRAAV [CS025_HUMAN_63_YA],inactive: 0.585
2,ITSSSAIYDNPNLIK [DCP1B_HUMAN_191],inactive: 0.724
3,FGMSRNLYAGDAARV [DDR1_HUMAN_792_YA],inactive: 0.468
4,KALKQQDYLSLPPWE [CSF2RB_HUMAN_882],inactive: 0.764
5,NDQDAMEYSSEEEEV [DDX46_HUMAN_294],inactive: 1.14
6,DDQRSMGYDDLDAGM [CTND1_HUMAN_291_YA],inactive: 0.761
7,GQAPGYSYTAANKNK [CYC_HUMAN_49],inactive: 1.2
8,GSPGHTIYAKVDNEI [ABLM1_HUMAN_373],inactive: 0.668
9,APGGSDNYGSLSRVT [CTND1_HUMAN_228_YA],inactive: 0.688
10,SKGLPSPYNMSSAPG [DESP_HUMAN_2817],inactive: 0.541
11,AVVNLINYQDDAELA [CTNB1_HUMAN_142],inactive: 0.722
12,TKSLDNNYSTPNERG [CTND1_HUMAN_904],inactive: 0.995
13,ALRFCGIYGYRLRRK [CSF2RB_HUMAN_466],inactive: 0.532
14,NAHVRNTYSQTALDI [CSKI1_HUMAN_253],inactive: 0.653
15,DDQRSMGYDDLDYGM [CTND1_HUMAN_291],inactive: 0.742
16,ESYEGNSYTFIDPTQ [CSF1R_HUMAN_561],inactive: 0.507
17,EDVEDPVYQAIVFEA [DAB1_HUMAN_198_YA],inactive: 1.06
18,EDEDDEDYVPYVPLR [DDX41_HUMAN_33],inactive: 0.744

# Molecular target: SHP2 N-SH2 domain T42A
# Test: as above
# Conditions: peptide library: Human pTyr
row,Binder,enrichment score
1,EAPGEQLYQQSRAAV [CS025_HUMAN_63_YA],inactive: 0.535
2,ITSSSAIYDNPNLIK [DCP1B_HUMAN_191],inactive: 0.61
3,FGMSRNLYAGDAARV [DDR1_HUMAN_792_YA],inactive: 0.564
4,KALKQQDYLSLPPWE [CSF2RB_HUMAN_882],inactive: 0.754
5,NDQDAMEYSSEEEEV [DDX46_HUMAN_294],inactive: 0.909
6,DDQRSMGYDDLDAGM [CTND1_HUMAN_291_YA],inactive: 0.72
7,GQAPGYSYTAANKNK [CYC_HUMAN_49],inactive: 1.02
8,GSPGHTIYAKVDNEI [ABLM1_HUMAN_373],inactive: 1.2
9,APGGSDNYGSLSRVT [CTND1_HUMAN_228_YA],inactive: 0.755
10,SKGLPSPYNMSSAPG [DESP_HUMAN_2817],inactive: 0.657
11,AVVNLINYQDDAELA [CTNB1_HUMAN_142],inactive: 0.738
12,TKSLDNNYSTPNERG [CTND1_HUMAN_904],inactive: 0.792
13,ALRFCGIYGYRLRRK [CSF2RB_HUMAN_466],inactive: 0.693
14,NAHVRNTYSQTALDI [CSKI1_HUMAN_253],inactive: 0.626
15,DDQRSMGYDDLDYGM [CTND1_HUMAN_291],inactive: 0.944
16,ESYEGNSYTFIDPTQ [CSF1R_HUMAN_561],inactive: 0.687
17,EDVEDPVYQAIVFEA [DAB1_HUMAN_198_YA],inactive: 1.4
18,EDEDDEDYVPYVPLR [DDX41_HUMAN_33],inactive: 0.972

# Molecular target: SHP2 N-SH2 domain T52S
# Test: as above
# Conditions: peptide library: Human pTyr
row,Binder,enrichment score
1,EAPGEQLYQQSRAAV [CS025_HUMAN_63_YA],inactive: 0.529
2,ITSSSAIYDNPNLIK [DCP1B_HUMAN_191],inactive: 0.627
3,FGMSRNLYAGDAARV [DDR1_HUMAN_792_YA],inactive: 0.507
4,KALKQQDYLSLPPWE [CSF2RB_HUMAN_882],inactive: 0.91
5,NDQDAMEYSSEEEEV [DDX46_HUMAN_294],inactive: 1.63
6,DDQRSMGYDDLDAGM [CTND1_HUMAN_291_YA],inactive: 0.813
7,GQAPGYSYTAANKNK [CYC_HUMAN_49],inactive: 1.1
8,GSPGHTIYAKVDNEI [ABLM1_HUMAN_373],inactive: 0.741
9,APGGSDNYGSLSRVT [CTND1_HUMAN_228_YA],inactive: 0.691
10,SKGLPSPYNMSSAPG [DESP_HUMAN_2817],inactive: 0.502
11,AVVNLINYQDDAELA [CTNB1_HUMAN_142],inactive: 0.62
12,TKSLDNNYSTPNERG [CTND1_HUMAN_904],inactive: 1.09
13,ALRFCGIYGYRLRRK [CSF2RB_HUMAN_466],inactive: 0.628
14,NAHVRNTYSQTALDI [CSKI1_HUMAN_253],inactive: 0.742
15,DDQRSMGYDDLDYGM [CTND1_HUMAN_291],inactive: 0.736
16,ESYEGNSYTFIDPTQ [CSF1R_HUMAN_561],inactive: 0.577
17,EDVEDPVYQAIVFEA [DAB1_HUMAN_198_YA],inactive: 1.1
18,EDEDDEDYVPYVPLR [DDX41_HUMAN_33],inactive: 1

# Molecular target: SHP2 N-SH2 domain wild-type
# Test: as above
# Conditions: peptide library: Human pTyr
row,Binder,enrichment score
1,EAPGEQLYQQSRAAV [CS025_HUMAN_63_YA],inactive: 0.514
2,ITSSSAIYDNPNLIK [DCP1B_HUMAN_191],inactive: 0.567
3,FGMSRNLYAGDAARV [DDR1_HUMAN_792_YA],inactive: 0.58
4,KALKQQDYLSLPPWE [CSF2RB_HUMAN_882],inactive: 0.714
5,NDQDAMEYSSEEEEV [DDX46_HUMAN_294],inactive: 1.12
6,DDQRSMGYDDLDAGM [CTND1_HUMAN_291_YA],inactive: 0.93
7,GQAPGYSYTAANKNK [CYC_HUMAN_49],inactive: 1.11
8,GSPGHTIYAKVDNEI [ABLM1_HUMAN_373],inactive: 0.752
9,APGGSDNYGSLSRVT [CTND1_HUMAN_228_YA],inactive: 0.873
10,SKGLPSPYNMSSAPG [DESP_HUMAN_2817],inactive: 0.581
11,AVVNLINYQDDAELA [CTNB1_HUMAN_142],inactive: 0.791
12,TKSLDNNYSTPNERG [CTND1_HUMAN_904],inactive: 1.23
13,ALRFCGIYGYRLRRK [CSF2RB_HUMAN_466],inactive: 0.662
14,NAHVRNTYSQTALDI [CSKI1_HUMAN_253],inactive: 0.634
15,DDQRSMGYDDLDYGM [CTND1_HUMAN_291],inactive: 0.722
16,ESYEGNSYTFIDPTQ [CSF1R_HUMAN_561],inactive: 0.697
17,EDVEDPVYQAIVFEA [DAB1_HUMAN_198_YA],inactive: 1.43
18,EDEDDEDYVPYVPLR [DDX41_HUMAN_33],inactive: 0.852

# Source: the supplement of paper PMC10369915
